# Experimental data published in US20230099801A1, “RESTORATION OF T CELL ACTIVITY VIA THE CD39/CD73 AXIS” (INNATE PHARMA, priority 2017, published 2023).
# T1: CD39 mutant 5 (Homo sapiens, UniProt P49961, E143A/N99A/Q96A/R147E)
# T1 construct: expressed in transfected cells; host or cells: HEK-293T cells
# T1 sequence (P49961 1-510 Q96A/N99A/E143A/R147E): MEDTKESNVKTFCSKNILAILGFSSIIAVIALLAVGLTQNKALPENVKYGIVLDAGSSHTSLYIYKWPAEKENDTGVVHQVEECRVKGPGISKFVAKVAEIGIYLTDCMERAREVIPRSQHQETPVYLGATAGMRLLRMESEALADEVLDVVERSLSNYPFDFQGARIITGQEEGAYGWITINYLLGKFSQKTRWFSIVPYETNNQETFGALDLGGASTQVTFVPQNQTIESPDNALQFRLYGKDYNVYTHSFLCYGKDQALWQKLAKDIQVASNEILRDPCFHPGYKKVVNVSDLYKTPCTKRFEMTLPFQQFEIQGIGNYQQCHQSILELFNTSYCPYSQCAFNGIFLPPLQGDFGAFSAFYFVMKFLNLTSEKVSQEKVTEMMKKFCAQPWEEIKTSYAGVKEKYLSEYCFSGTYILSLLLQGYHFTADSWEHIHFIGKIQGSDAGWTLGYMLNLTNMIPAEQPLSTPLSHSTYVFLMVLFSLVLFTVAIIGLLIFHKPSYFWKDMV
# T2: CD39 mutant 19 (Homo sapiens, UniProt P49961, E142K/M139A/R138A)
# T2 construct: expressed in transfected cells; host or cells: HEK-293T cells
# T2 sequence (P49961 1-510 R138A/M139A/E142K): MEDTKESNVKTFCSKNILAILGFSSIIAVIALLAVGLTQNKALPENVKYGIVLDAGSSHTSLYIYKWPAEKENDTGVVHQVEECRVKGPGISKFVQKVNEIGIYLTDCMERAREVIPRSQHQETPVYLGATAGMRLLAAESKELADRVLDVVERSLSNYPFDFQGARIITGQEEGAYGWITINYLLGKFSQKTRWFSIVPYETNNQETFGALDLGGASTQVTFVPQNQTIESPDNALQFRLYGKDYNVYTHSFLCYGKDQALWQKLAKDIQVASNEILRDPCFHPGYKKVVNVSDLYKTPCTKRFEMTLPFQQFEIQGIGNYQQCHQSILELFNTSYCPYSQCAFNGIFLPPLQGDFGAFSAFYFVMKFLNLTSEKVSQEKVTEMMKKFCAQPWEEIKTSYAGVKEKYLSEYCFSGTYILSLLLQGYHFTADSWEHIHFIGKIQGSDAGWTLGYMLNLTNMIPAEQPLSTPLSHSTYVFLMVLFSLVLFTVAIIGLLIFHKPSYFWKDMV
# T3: CD39 mutant 15 (Homo sapiens, UniProt P49961, D107A/E100A/K87A)
# T3 construct: expressed in transfected cells; host or cells: HEK-293T cells
# T3 sequence (P49961 1-510 K87A/E100A/D107A): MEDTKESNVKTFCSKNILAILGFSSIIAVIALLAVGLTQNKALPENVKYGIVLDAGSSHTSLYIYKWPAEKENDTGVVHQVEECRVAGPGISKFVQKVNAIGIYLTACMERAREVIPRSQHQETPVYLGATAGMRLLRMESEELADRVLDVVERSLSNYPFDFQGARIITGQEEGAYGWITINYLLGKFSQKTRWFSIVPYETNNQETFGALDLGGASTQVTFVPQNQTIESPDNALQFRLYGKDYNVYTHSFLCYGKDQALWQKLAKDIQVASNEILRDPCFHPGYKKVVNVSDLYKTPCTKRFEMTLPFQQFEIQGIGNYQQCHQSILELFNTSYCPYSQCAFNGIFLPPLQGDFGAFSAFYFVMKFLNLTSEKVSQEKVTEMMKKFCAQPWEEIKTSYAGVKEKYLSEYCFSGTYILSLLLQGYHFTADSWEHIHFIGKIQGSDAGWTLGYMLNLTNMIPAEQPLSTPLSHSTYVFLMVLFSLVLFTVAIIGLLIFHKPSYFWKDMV
# Experiments:
# CD39 mutant 5 = biological target: T1, CD39 mutant 5; experiment: Epitope mapping by flow cytometry on Hek-293T cells expressing CD39 mutant 5; format: binding; conditions: substitutions Q96A
# Procedure: (§1) CD39 mutants were generated by PCR. The sequences amplified were run on agarose gel and purified using the Macherey Nagel PCR Clean-Up Gel Extraction kit (reference 740609). The purified PCR products generated for each mutant were then ligated into an expression vector, with the ClonTech InFusion system. The vectors containing the mutated sequences were prepared as Miniprep and sequenced. After sequencing, the vectors containing the mutated sequences were prepared as Midiprep using the Promega PureYield™ Plasmid Midiprep System. HEK293T cells were grown in DMEM medium (Invitrogen), transfected with vectors using Invitrogen's Lipofectamine 2000 and incubated at 37° C. in a CO2 incubator for 48 hours prior to testing for transgene expression.
# (§2) In order to define the epitopes of anti-CD39 antibodies, we designed CD39 mutants defined by substitutions of amino acids exposed at the molecular surface over the surface of CD39.
# (§3) Mutant 5 contains amino acid substitutions at residues Q96, N99, E143 and R147.
# (§4) Mutants were transfected in Hek-293T cells, as shown in the table 1, using numbering of SEQ ID NO: 2. […] Mutant 19 includes substitutions at residues R138, M139 and E142.
# Mutants were transfected in Hek-293T cells, as shown in the table 1, using numbering of SEQ ID NO: 2. […]
# CD39 mutant 19 = biological target: T2, CD39 mutant 19; experiment: Epitope mapping by flow cytometry on Hek-293T cells expressing CD39 mutant 19; format: binding; conditions: substitutions R138A
# Procedure: as §1, §2, §4
# (§5) Mutants were transfected in Hek-293T cells, as shown in the table 1, using numbering of SEQ ID NO: 2. Dose-ranges of test antibodies (10-2.5-0.625-0.1563-0.0391-0.0098-0.0024-0.0006 μg/ml) are tested on the 20 generated mutants by flow cytometry.
# CD39 mutant 15 = biological target: T3, CD39 mutant 15; experiment: Epitope mapping by flow cytometry on Hek-293T cells expressing CD39 mutant 15; format: binding; conditions: substitutions K87A
# Procedure: as §1, with “expression. The targeted amino acid mutations in the table 1 below are shown using numbering of SEQ ID NO: 2.” for “expression.”
# as §2, §5
# [1] = test system: other CD39 mutants of Table 1; experiment: Epitope mapping by flow cytometry on the other CD39 mutants of Table 1; format: binding, human
# Procedure: as §1, with “expression. The targeted amino acid mutations in the table 1 below are shown using numbering of SEQ ID NO: 2.” for “expression.”
# as §2, §3, §5
binding to cells expressing mutant 5 of CD39 (CD39 mutant 5),binding to cells expressing mutant 19 of CD39 (CD39 mutant 19),binding to cells expressing mutant 15 of CD39 (CD39 mutant 15),binding to any other mutant of the 20 CD39 mutants [1],Molecule
loss of binding,loss of binding,–,–,"I-395: anti-CD39 antibody, VH SEQ ID NO: 14, VL SEQ ID NO: 15 (antibody, listed as Mus musculus, V domains shown) VH: EVQLQQSGPELVKPGASVRMSCKASGYTFTDYNMHWVKKNHGKGLEWIGYINPNNGGTTYNQKFKGKATLTVNTSSKTAYMELRSLTSEDSAVYYCTRGGTRFASWGQGTLVTVSA VL: NIVLTQSPASLAVSLGQRATISCRASESVDNYGISFMYWFQQKPGQPPKLLIYAASTQGSGVPARFSGSGSGTDFSLNIHPMEEDDTAMYFCQQSKEVPFTFGSGTKLEIK"
–,–,loss of binding,without loss of binding,"I-396: anti-CD39 antibody, VH SEQ ID NO: 22, VL SEQ ID NO: 23 (antibody, listed as Mus musculus, V domains shown) VH: EVQLQQSGAELVKPGASVKLSCIVSGFNIKDTYINWVKQRPEQGLEWIGRIDPANGNTKYDPKFQGKATMTSDTSSNTAYLHLSSLTSDDSAVYYCARWGYDDEEADYFDSWGQGTTLTVSS VL: DIVLTQSPASLAVSLGQRATISCRASESVDNYGISFMNWFQQKPGQPPKLLIYAASNQGSGVPARFSGSGSGTDFSLNILPMEEVDAAMYFCHQSKEVPWTFGGGTKLEIK"
